In all, about 33,000 sequences were measured (“E-score (-0.5 to 0.5)”: median about -0.01, highest 2% from about 0.26 on). This is one part of the list.
Each sequence was assayed against Ste12 (UniProt P13574) (assay: PBM E-score (8-mer binding enrichment) (E-score (-0.5 to 0.5)); higher = stronger / more preferred TF binding; most listed sequences are background and not binding sites). Conditions: protein concentration: 200 nM; construct: GST-DNA-binding domain.
Method in brief: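 E-scores (a modified Wilcoxon-Mann-Whitney statistic) were assigned by the Universal PBM Analysis Suite to every ungapped eight-base word pooled with its reverse complement. The input came from universal all-10-mer Agilent arrays made double-stranded by primer extension and probed with GST-tagged yeast transcription factors at about 100-200 nM. Fluorescent anti-GST detected bound protein, and masliner normalised the scans.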

Sequence | PBM E-score
AAGCGTTA | -0.0692
ATTTAGAG | 0.173
TAAGTGTA | 0.0872
ATCTCTCA | 0.165
GCTGGGAA | 0.0695
ACTGCGGC | -0.0139
CGTAACGA | -0.0713
CGTTCGCA | -0.119
CCGGGTAG | -0.118
CGCACCCC | -0.0205
TTAGCCAA | -0.0076
TAACAGAA | 0.249
GAGGCTCA | -0.23
GCATACAC | -0.218
AAATATAG | 0.17
AGACTACG | -0.276
CGACCCCG | 0.0973
CGCTTAAA | 0.154
CATTTTGA | 0.144
ATTATTCA | 0.111
TAAGGATA | 0.0921
CCTTTATC | -0.0768
CTCCCAGC | -0.0704
GTGTGAGA | 0.0959
AATCTACG | 0.0245

Sequence | PBM E-score
AATCAATG | 0.0688
GGTGCTAA | -0.0919
CGCGTGGC | -0.155
AATTCAGG | 0.152
CTCACAAA | 0.111
CACAACTA | 0.153
ATGGTTGA | -0.00188
ACGGCCAC | -0.0835
CAGTGTAC | -0.0739
TAACAATA | 0.239
CGGTTGCC | -0.143
CGGAATAG | 0.0664
TATCTTCA | 0.15
ACTGGAAT | 0.047
CGCAGGGC | -0.0726
GAGAGAAC | -0.0294
CACAAGCG | 0.0768
GCTCCTGA | -0.0216
AATGTTAG | -0.00616
GTGGGTTA | -0.0599
CAGATATG | -0.00623
ATTCTAGC | 0.0305
TCAAAGAA | 0.128
CATAATAC | 0.194
GCCATGCC | -0.077

Sequence | PBM E-score
GCATTGGA | -0.113
GAAGGGTA | 0.0573
ATACTAAT | 0.238
ATGTTTGG | 0.151
CCTCTACA | -0.00297
AAAGTTGA | 0.111
GGACGAAA | 0.139
CCAACAAC | -0.0652
AAGCGCCG | 0.172
GATCTTGA | 0.0478
AGAATAAT | 0.0748
TCTTGGAA | 0.0137
AGGCCACC | -0.0834
TAAAAGCA | 0.172
CTTCGGAA | 0.0054
GACCCCCC | -0.143
ATACTTCG | 0.00749
AGCATTTC | 0.137
CACTTAAA | 0.287
AGGCTCAC | -0.164
AATCTTCG | -0.04
CGGTGATC | 0.0826
TGAACGCA | -0.00594
AGCCGACA | -0.204
CTATCTCC | -0.0626

Sequence | PBM E-score
AACTGTCG | -0.0342
AGCGACAC | 0.0304
CCTTCTTC | -0.0872
AATCCTCC | 0.0478
ACGGCTGA | -0.0682
CCCCAGCC | -0.0945
CGTCGCCC | -0.121
AATCCCAC | -0.00232
GCTCCAGA | -0.0645
ACGGACGG | -0.0823
CGATAGGA | -0.142
CACAGCTA | -0.172
ATGTGGGC | -0.0188
CATTACGC | -0.11
GGAGATTA | -0.158
GAAAACAA | 0.197
TGGGCCAA | -0.177
AAGCGATG | -0.0869
ATGTATAA | 0.0504
ATGGAAGA | 0.146
CAGGTGGG | 0.00583
CAAGATAC | 0.0209
ATAAGCAT | -0.0583
AATAGGGC | -0.178
ACTTTCAT | -0.0303

Sequence | PBM E-score
ATCAGAAA | 0.111
AACGCCCC | 0.203
ATTCTCAG | 0.12
TGTAACAA | 0.333
CAGGTGGA | -0.0546
CGTCTGAC | -0.15
CTAGTGAG | -0.0287
CTTAACTA | 0.0405
ATCTTAAG | 0.0605
CAAGCGGA | -0.119
GAGCCCCC | -0.11
CCTTGCTA | -0.0558
ATCTTAAA | 0.204
ACGGCTCT | -0.105
CAATAAGA | 0.021
ATCCCCGA | 0.0518
ATACTTCA | -0.106
AATATCAC | 0.107
AAGTCAAC | 0.0378
CAGCGACC | -0.0234
AGTTCTCG | -0.0126
TCGCCAAA | -0.0442
ATTTGCTG | 0.151
CCTCATTA | 0.133
GGAGGCGA | -0.119

Sequence | PBM E-score
AATCCTTG | 0.0237
AAAGGCAT | -0.0749
AGCTGAGC | -0.298
CTGCGATC | -0.076
CTTTTCCC | 0.073
ATGAGTAA | 0.00434
AGAAAGTG | -0.147
ATTGCATC | 0.152
AAAGTAAA | 0.224
CGGTGAAA | 0.245
AAGAAGAT | 0.0722
AATGGGAA | -0.151
AACATGGC | -0.166
GGGGCACC | -0.0552
ATACAATG | 0.0962
ACGAAAAG | 0.16
CAACTGAC | -0.11
GAAAAAGC | 0.226
GCTCCACA | -0.0645
CTCCTTTA | -0.0987
AAGAAATA | 0.147
ATGCTATA | -0.188
GCAATAGA | 0.0301
AACACGTT | -0.00917
TCTGCAAA | -0.0565

Sequence | PBM E-score
AGAGCCTA | -0.104
AGCGCCGA | -0.135
GTACATAC | -0.112
ATCACAAC | -0.0336
CGTTAACG | -0.0707
CAAGAACC | -0.0297
TGCCGTAA | -0.209
GAGCCTAA | -0.185
GAAGGCGC | -0.122
ATAATTCA | 0.159
AGCTATTA | -0.0498
TCTGACAA | 0.118
CCGTTCCA | -0.0227
CGCAACTA | 0.0849
CAAAGCGG | 0.00547
AGCGTCAT | -0.00577
CACTATGG | -0.0915
CTTTACGC | -0.0846
CAATCCAG | -0.0475
ACACATAG | -0.0287
GACTCGTA | -0.147
AGAGTGTG | -0.0777
ACAGTTAG | 0.0224
ACGCGACG | -0.0146
CACTACAA | 0.232

Sequence | PBM E-score
AAAGTTCT | -0.0249
ACGGCGAT | -0.069
AATTTAGC | 0.0929
CAAATCTG | 0.207
ACATAAGT | 0.0446
GATTAAGC | 0.0349
AAACTTCA | 0.17
CTCCCCGA | 0.0416
CGCCTTGA | -0.167
TCGGTCAA | -0.029
CGTCGCTA | -0.0969
GCACTCCC | -0.0179
ATCGAGAT | -0.0582
GAAACTGA | 0.114
CCGACCTA | 0.0599
AAAGACCG | 0.0453
CCCTGGCC | -0.24
CTTTATTC | 0.0873
GAAGAAAA | 0.197
GCCACCGC | -0.0362
ATCGGTTA | 0.126
AGAAGAGG | -0.0146
ATAACTAC | -0.00165
CACCCCTC | 0.192
ACCCGTGC | -0.232

Sequence | PBM E-score
CCTGCAGG | -0.16
CAAGATTG | 0.0884
CATAGTCA | -0.0776
GTTTATAA | 0.238
CGAGTCTC | -0.155
CGACCTAA | 0.141
ATTGCAGC | 0.0218
ACAGCGGG | -0.171
GCTACGTA | -0.128
ACTTGCAT | 0.0613
ATGCCTGG | -0.00205
CCCATACA | -0.0112
ACCTAAAC | 0.168
GTTCTACA | 0.031
CGGCTGCA | -0.0379
AGAAACCA | 0.194
GGGGAAAA | 0.112
ATCCTAGC | -0.0573
AGATCGCC | -0.0132
CAGAACGA | 0.106
CATAGGAC | -0.218
GGGCATGA | -0.143
CCCCGATC | -0.0934
ACGAGGCT | 0.0649
CTAATGGA | 0.0429

Sequence | PBM E-score
CTATATTC | -0.0299
TCAGCAGA | -0.131
AGTACACT | -0.143
GTTCCGAA | 0.137
TAGGGGGA | -0.257
AACTGGTA | -0.00841
TTTCAAAA | 0.343
CCGAGCAG | 0.0906
AACACCAG | -0.108
ATTAACCA | 0.0111
AACGAGGT | 0.0102
GTGTTTTA | 0.405
CCTCCGGA | -0.119
ATTCTCTC | 0.053
ATCATCAA | 0.156
TCGATGAA | 0.152
GCTACAAC | -0.161
TAGCGGGA | -0.142
TAACTGCA | -0.141
CTACAATA | 0.173
CGCTCGTA | -0.0524
AAGTGAGA | -0.0648
ACAGTAAG | 0.0217
ATCTCCAA | 0.0282
CCGGAAGC | -0.0132

Sequence | PBM E-score
TAAGTGGA | 0.175
AGTCGCTG | -0.0244
ATTCAACC | 0.0538
AGTTAAAT | 0.163
GTCAAGCA | -0.37
CGGTCTCA | -0.0267
GTCCCTCA | -0.0769
AAGAACTT | -0.0547
ACCCAACC | -0.0602
TCGGCAGA | -0.0201
ATACCACA | 0.0256
ATACGGTA | 0.0398
GCGGTAGC | 0.0401
GAGTAGGC | -0.154
CACCTGGC | 0.0279
AGGTGCCA | -0.00545
CTTGATGC | -0.0799
AGATGGAG | -0.0199
ATAATGAT | 0.167
GAAAAAAC | 0.174
CTTTCTCA | 0.175
GCGTCTCC | -0.0864
CTTCGTTC | -0.0231
CGAGACCC | 0.0643
CGTGTTCC | 0.0784

Sequence | PBM E-score
GAGACGAA | 0.00731
AGGGGGAC | -0.317
CCAGGTGA | -0.00807
ACCGCTTC | -0.0945
AAATCAAG | 0.114
ACATGACA | 0.104
CCAAATAA | 0.124
GTATCTTA | 0.111
ATGGTATG | -0.211
ACCTAACC | -0.0859
CCAATCTC | 0.0596
CAGATGAG | -0.0391
TACGGCTA | 0.0636
ATCGGTTC | 0.0264
AGCCTTCC | -0.215
AGCCATGG | -0.192
GCAGGTGA | -0.0702
CTCATGTC | -0.0818
AACGGCTT | -0.14
AGGGCCAT | -0.202
AGCCCTGC | -0.172
GTTCGTCA | -0.175
CGTGGGGA | 0.0623
TAAACCGA | 0.164
CTAGGGCC | -0.187

Sequence | PBM E-score
CCGATCAC | 0.0198
AGCTTGGC | -0.0622
ACTCATTG | -0.19
AGCACGCG | -0.101
ACCGGGAA | 0.23
GGGAGTAA | 0.128
AGGGGTAC | -0.00096
CTATTCAA | 0.0745
GTGACACA | 0.154
CAGACGCG | -0.101
AGTAGATG | 0.113
CAGGCCAC | 0.00041
AGCTCCGA | 0.0346
CCGCTAAG | 0.109
CGGGCCCG | 0.0973
GTAGTTAA | 0.0674
ACTTAGGA | -0.0167
GCCTTTGA | 0.175
GACTGTAA | -0.0138
GGAGCCCA | -0.172
AGAGCTGG | -0.109
GGGGCCAA | -0.0931
CACCCCTA | 0.0496
CTGCCTGC | -0.334
AGTAGACC | -0.1

Sequence | PBM E-score
AGTTTAAC | 0.0433
GATGCGGC | 0.00142
CGAGACTA | 0.00317
CGCTTGGC | -0.231
CGGACCTC | -0.102
GCTATAGA | -0.153
CCGGAGTC | -0.221
AGCCTGGC | -0.17
CGGAACGC | 0.0364
GCAGGGGA | -0.104
GTAGCCCA | -0.21
CTGTATCC | 0.00622
CAAGCTCG | -0.0692
CCGTTGGC | -0.0445
ATAAACGC | -0.0196
GCTAAGAC | -0.00979
AATCTCTA | 0.176
CGTTGCAA | 0.128
ATACCCTA | 0.0675
